First the molecules themselves.
B1: ffh L104A (protein)
chain: MFDNLTDRLSRTLRNISGRGRLTEDNVKDTLREVRMALLEADVALPVVREFINRVKEKAVGHEVNKSLTPGQEFVKIVRNELVAAMGEENQTLNLAAQPPAVVAMAGLQGAGKTTSVGKLGKFLREKHKKKVLVVSADVYRPAAIKQLETLAEQVGVDFFPSDVGQKPVDIVNAALKEAKLKFYDVLLVDTAGRLHVDEAMMDEIKQVHASINPVETLFVVDAMTGQDAANTAKAFNEALPLTGVVLTKVDGDARGGAALSIRHITGKPIKFLGVGEKTEALEPFHPDRIASRILGMGDVLSLIEDIESKVDRAQAEKLASKLKKGDGFDLNDFLEQLRQMKNMGGMASLMGKLPGMGQIPDNVKSQMDDKVLVRMEAIINSMTMKERAKPEIIKGSRKRRIAAGCGMQVQDVNRLLKQFDDMQRMMKKMKKGGMAKMMRSMKGMMPPGFPGR
B2: ffh L104W (protein)
chain: MFDNLTDRLSRTLRNISGRGRLTEDNVKDTLREVRMALLEADVALPVVREFINRVKEKAVGHEVNKSLTPGQEFVKIVRNELVAAMGEENQTLNLAAQPPAVVWMAGLQGAGKTTSVGKLGKFLREKHKKKVLVVSADVYRPAAIKQLETLAEQVGVDFFPSDVGQKPVDIVNAALKEAKLKFYDVLLVDTAGRLHVDEAMMDEIKQVHASINPVETLFVVDAMTGQDAANTAKAFNEALPLTGVVLTKVDGDARGGAALSIRHITGKPIKFLGVGEKTEALEPFHPDRIASRILGMGDVLSLIEDIESKVDRAQAEKLASKLKKGDGFDLNDFLEQLRQMKNMGGMASLMGKLPGMGQIPDNVKSQMDDKVLVRMEAIINSMTMKERAKPEIIKGSRKRRIAAGCGMQVQDVNRLLKQFDDMQRMMKKMKKGGMAKMMRSMKGMMPPGFPGR
B3: ffh V172W (protein)
chain: MFDNLTDRLSRTLRNISGRGRLTEDNVKDTLREVRMALLEADVALPVVREFINRVKEKAVGHEVNKSLTPGQEFVKIVRNELVAAMGEENQTLNLAAQPPAVVLMAGLQGAGKTTSVGKLGKFLREKHKKKVLVVSADVYRPAAIKQLETLAEQVGVDFFPSDVGQKPVDIWNAALKEAKLKFYDVLLVDTAGRLHVDEAMMDEIKQVHASINPVETLFVVDAMTGQDAANTAKAFNEALPLTGVVLTKVDGDARGGAALSIRHITGKPIKFLGVGEKTEALEPFHPDRIASRILGMGDVLSLIEDIESKVDRAQAEKLASKLKKGDGFDLNDFLEQLRQMKNMGGMASLMGKLPGMGQIPDNVKSQMDDKVLVRMEAIINSMTMKERAKPEIIKGSRKRRIAAGCGMQVQDVNRLLKQFDDMQRMMKKMKKGGMAKMMRSMKGMMPPGFPGR
B4: ffh V103W (protein)
chain: MFDNLTDRLSRTLRNISGRGRLTEDNVKDTLREVRMALLEADVALPVVREFINRVKEKAVGHEVNKSLTPGQEFVKIVRNELVAAMGEENQTLNLAAQPPAVWLMAGLQGAGKTTSVGKLGKFLREKHKKKVLVVSADVYRPAAIKQLETLAEQVGVDFFPSDVGQKPVDIVNAALKEAKLKFYDVLLVDTAGRLHVDEAMMDEIKQVHASINPVETLFVVDAMTGQDAANTAKAFNEALPLTGVVLTKVDGDARGGAALSIRHITGKPIKFLGVGEKTEALEPFHPDRIASRILGMGDVLSLIEDIESKVDRAQAEKLASKLKKGDGFDLNDFLEQLRQMKNMGGMASLMGKLPGMGQIPDNVKSQMDDKVLVRMEAIINSMTMKERAKPEIIKGSRKRRIAAGCGMQVQDVNRLLKQFDDMQRMMKKMKKGGMAKMMRSMKGMMPPGFPGR
B5: ffh L187A (protein)
chain: MFDNLTDRLSRTLRNISGRGRLTEDNVKDTLREVRMALLEADVALPVVREFINRVKEKAVGHEVNKSLTPGQEFVKIVRNELVAAMGEENQTLNLAAQPPAVVLMAGLQGAGKTTSVGKLGKFLREKHKKKVLVVSADVYRPAAIKQLETLAEQVGVDFFPSDVGQKPVDIVNAALKEAKLKFYDVALVDTAGRLHVDEAMMDEIKQVHASINPVETLFVVDAMTGQDAANTAKAFNEALPLTGVVLTKVDGDARGGAALSIRHITGKPIKFLGVGEKTEALEPFHPDRIASRILGMGDVLSLIEDIESKVDRAQAEKLASKLKKGDGFDLNDFLEQLRQMKNMGGMASLMGKLPGMGQIPDNVKSQMDDKVLVRMEAIINSMTMKERAKPEIIKGSRKRRIAAGCGMQVQDVNRLLKQFDDMQRMMKKMKKGGMAKMMRSMKGMMPPGFPGR
B6: ffh V172Q (protein)
chain: MFDNLTDRLSRTLRNISGRGRLTEDNVKDTLREVRMALLEADVALPVVREFINRVKEKAVGHEVNKSLTPGQEFVKIVRNELVAAMGEENQTLNLAAQPPAVVLMAGLQGAGKTTSVGKLGKFLREKHKKKVLVVSADVYRPAAIKQLETLAEQVGVDFFPSDVGQKPVDIQNAALKEAKLKFYDVLLVDTAGRLHVDEAMMDEIKQVHASINPVETLFVVDAMTGQDAANTAKAFNEALPLTGVVLTKVDGDARGGAALSIRHITGKPIKFLGVGEKTEALEPFHPDRIASRILGMGDVLSLIEDIESKVDRAQAEKLASKLKKGDGFDLNDFLEQLRQMKNMGGMASLMGKLPGMGQIPDNVKSQMDDKVLVRMEAIINSMTMKERAKPEIIKGSRKRRIAAGCGMQVQDVNRLLKQFDDMQRMMKKMKKGGMAKMMRSMKGMMPPGFPGR
B7: ffh V172P (protein)
chain: MFDNLTDRLSRTLRNISGRGRLTEDNVKDTLREVRMALLEADVALPVVREFINRVKEKAVGHEVNKSLTPGQEFVKIVRNELVAAMGEENQTLNLAAQPPAVVLMAGLQGAGKTTSVGKLGKFLREKHKKKVLVVSADVYRPAAIKQLETLAEQVGVDFFPSDVGQKPVDIPNAALKEAKLKFYDVLLVDTAGRLHVDEAMMDEIKQVHASINPVETLFVVDAMTGQDAANTAKAFNEALPLTGVVLTKVDGDARGGAALSIRHITGKPIKFLGVGEKTEALEPFHPDRIASRILGMGDVLSLIEDIESKVDRAQAEKLASKLKKGDGFDLNDFLEQLRQMKNMGGMASLMGKLPGMGQIPDNVKSQMDDKVLVRMEAIINSMTMKERAKPEIIKGSRKRRIAAGCGMQVQDVNRLLKQFDDMQRMMKKMKKGGMAKMMRSMKGMMPPGFPGR
B8: ffh V172A (protein)
chain: MFDNLTDRLSRTLRNISGRGRLTEDNVKDTLREVRMALLEADVALPVVREFINRVKEKAVGHEVNKSLTPGQEFVKIVRNELVAAMGEENQTLNLAAQPPAVVLMAGLQGAGKTTSVGKLGKFLREKHKKKVLVVSADVYRPAAIKQLETLAEQVGVDFFPSDVGQKPVDIANAALKEAKLKFYDVLLVDTAGRLHVDEAMMDEIKQVHASINPVETLFVVDAMTGQDAANTAKAFNEALPLTGVVLTKVDGDARGGAALSIRHITGKPIKFLGVGEKTEALEPFHPDRIASRILGMGDVLSLIEDIESKVDRAQAEKLASKLKKGDGFDLNDFLEQLRQMKNMGGMASLMGKLPGMGQIPDNVKSQMDDKVLVRMEAIINSMTMKERAKPEIIKGSRKRRIAAGCGMQVQDVNRLLKQFDDMQRMMKKMKKGGMAKMMRSMKGMMPPGFPGR
B9: ffh V103A (protein)
chain: MFDNLTDRLSRTLRNISGRGRLTEDNVKDTLREVRMALLEADVALPVVREFINRVKEKAVGHEVNKSLTPGQEFVKIVRNELVAAMGEENQTLNLAAQPPAVALMAGLQGAGKTTSVGKLGKFLREKHKKKVLVVSADVYRPAAIKQLETLAEQVGVDFFPSDVGQKPVDIVNAALKEAKLKFYDVLLVDTAGRLHVDEAMMDEIKQVHASINPVETLFVVDAMTGQDAANTAKAFNEALPLTGVVLTKVDGDARGGAALSIRHITGKPIKFLGVGEKTEALEPFHPDRIASRILGMGDVLSLIEDIESKVDRAQAEKLASKLKKGDGFDLNDFLEQLRQMKNMGGMASLMGKLPGMGQIPDNVKSQMDDKVLVRMEAIINSMTMKERAKPEIIKGSRKRRIAAGCGMQVQDVNRLLKQFDDMQRMMKKMKKGGMAKMMRSMKGMMPPGFPGR
B10: ffh V103Q (protein)
chain: MFDNLTDRLSRTLRNISGRGRLTEDNVKDTLREVRMALLEADVALPVVREFINRVKEKAVGHEVNKSLTPGQEFVKIVRNELVAAMGEENQTLNLAAQPPAVQLMAGLQGAGKTTSVGKLGKFLREKHKKKVLVVSADVYRPAAIKQLETLAEQVGVDFFPSDVGQKPVDIVNAALKEAKLKFYDVLLVDTAGRLHVDEAMMDEIKQVHASINPVETLFVVDAMTGQDAANTAKAFNEALPLTGVVLTKVDGDARGGAALSIRHITGKPIKFLGVGEKTEALEPFHPDRIASRILGMGDVLSLIEDIESKVDRAQAEKLASKLKKGDGFDLNDFLEQLRQMKNMGGMASLMGKLPGMGQIPDNVKSQMDDKVLVRMEAIINSMTMKERAKPEIIKGSRKRRIAAGCGMQVQDVNRLLKQFDDMQRMMKKMKKGGMAKMMRSMKGMMPPGFPGR
B11: ffh V186A (protein)
chain: MFDNLTDRLSRTLRNISGRGRLTEDNVKDTLREVRMALLEADVALPVVREFINRVKEKAVGHEVNKSLTPGQEFVKIVRNELVAAMGEENQTLNLAAQPPAVVLMAGLQGAGKTTSVGKLGKFLREKHKKKVLVVSADVYRPAAIKQLETLAEQVGVDFFPSDVGQKPVDIVNAALKEAKLKFYDALLVDTAGRLHVDEAMMDEIKQVHASINPVETLFVVDAMTGQDAANTAKAFNEALPLTGVVLTKVDGDARGGAALSIRHITGKPIKFLGVGEKTEALEPFHPDRIASRILGMGDVLSLIEDIESKVDRAQAEKLASKLKKGDGFDLNDFLEQLRQMKNMGGMASLMGKLPGMGQIPDNVKSQMDDKVLVRMEAIINSMTMKERAKPEIIKGSRKRRIAAGCGMQVQDVNRLLKQFDDMQRMMKKMKKGGMAKMMRSMKGMMPPGFPGR

± gives the standard deviation of the averaged measurements. Laboratory Escherichia coli strains with one amino-acid change in an essential protein, pooled on minimal glucose agar with carbenicillin or gentamicin at twice the control MIC (plus kanamycin and chloramphenicol for the plasmids), 48 h. Fold change of barcode share against drug-free plates; higher = less susceptible. Active = above 20 in both replicates (the paper's putatively resistant). '<' = one read or none on drug, '>' = one read or none on a drug-free plate. Shares are relative, so most strains fall below 1 when a few take over. Listed are strains with at least 15 reads on both drug-free plates, and hits; most hits rest on fewer reference reads. Replicate rank correlation about 0.5. Edits are read from barcodes.

In the first series the target is Escherichia coli (laboratory strain). As to the kind of experiment: barcode share on antibiotic plates over drug-free plates; higher = less susceptible. As to conditions: antibiotic: carbenicillin; 2× MIC (3.1 µg/mL). On the procedure:
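A pool of E. coli strains, each edited to carry one amino-acid change in an essential protein, was grown for 48 h on minimal glucose agar with or without antibiotic; strain barcodes were sequenced; mean of two replicates.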
Regarding B1, the “fold change of barcode share” value turned out to be 0.649 ± 0.16.
Same read-out and setting: the figure for B2 is 0.466 ± 0.26.
The same measure, in the same setting: as for B3, the figure is 0.34 ± 0.059; as for B4, 0.502 ± 0.069; as for B5, 0.2677 ± 0.0015.
The same measure, in the same setting: the figure for B6 is 0.209 ± 0.047; for B7 it is 0.34 ± 0.051; for B8 it is 0.248 ± 0.029.
For B9, the “fold change of barcode share” value was found to be 0.39 ± 0.069.
Take B10: the “fold change of barcode share” value was 0.322 ± 0.079.
Still for that read-out and setting: the figure for B11 is 0.255 ± 0.044.

Staying with this series, now noted: antibiotic: gentamicin; 2× MIC (MIC 0.45 µg/mL).
Turning to B1, the “fold change of barcode share” value is 0.00263 ± 0.0026.
On the same count and under the same terms, as for B2, the figure is 0.005 ± 0.0029; as for B3, 0.00453 ± 0.0015.
Still for that read-out and setting: as for B4, the figure is 0.295 ± 0.34.
The same measure, in the same setting: as for B5, the figure is 0.0198 ± 0.022; as for B6, 0.00695 ± 0.0065.
For B7, the “fold change of barcode share” value amounted to 0.00441 ± 0.0024.
B8: the “fold change of barcode share” value is under 0.00315.
On to B9, for which the “fold change of barcode share” value came out at 0.00694 ± 0.0021.
Still for that read-out and setting: the figure for B10 is 0.00618 ± 0.0033; for B11 it is 0.012 ± 0.011.

Source of the values: the supplement of paper PMC11876631.
